Laboratory results from PubChem BioAssay AID651815 (National Center for Advancing Translational Sciences (NCATS), 2012).
Out of some 2,100 compounds screened, about 1,100 (52%) were called active. So high a share suggests a set chosen from earlier hits. This list was built around the results that the source calls inconclusive (neither active nor inactive); the mix of calls is not that of the screen. The call rests on the fitted dose curve; in most records, active means well fitted inhibition curve with a large enough effect; inconclusive means small, poorly fitted or top-dose-only effect; inactive means no such curve, though single readings can be large or run the other way. No potency is given beside an inconclusive call; the fits are too rough.

Target: DNA dC->dU-editing enzyme APOBEC-3F (Homo sapiens) (UniProt Q8IUX4)
Test: qHTS for inhibitors of Vif-A3F interactions: Cherry picks counterscreen; further: nearly all actives have a fitted effect of over 65% in size
Conditions: HeLa A3F-eYFP/Vif cells, eYFP fluorescence, 24 h; series mostly up to 46.1 µM
Outline: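 Rescue of Vif-driven A3F-eYFP degradation read as cellular eYFP fluorescence after 24 h compound exposure (several concentrations) in stable HeLa cells; MG132 (2 mM stock) as positive control.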
Potency means the concentration at half of the fitted maximal effect; tags describe the fitted curve by direction and shape.

UniProt Q8IUX4, sequence (Q8IUX4 whole entry, looked up): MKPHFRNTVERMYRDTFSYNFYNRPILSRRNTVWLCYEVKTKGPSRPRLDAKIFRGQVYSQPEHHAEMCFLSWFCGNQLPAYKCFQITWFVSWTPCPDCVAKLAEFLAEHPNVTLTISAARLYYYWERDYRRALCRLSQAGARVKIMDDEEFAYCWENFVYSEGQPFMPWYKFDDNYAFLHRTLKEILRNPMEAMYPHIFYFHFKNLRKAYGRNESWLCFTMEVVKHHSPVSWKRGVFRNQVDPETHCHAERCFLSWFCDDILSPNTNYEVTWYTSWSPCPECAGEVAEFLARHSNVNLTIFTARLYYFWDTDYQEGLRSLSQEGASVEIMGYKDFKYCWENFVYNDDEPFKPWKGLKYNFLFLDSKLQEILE

| SMILES | Potency |
| --- | --- |
| Cc1ccc(Nc2nc(-c3cccnc3)nc3ccccc23)cc1 | inconclusive [inhibitor, single point] |
| O=C(O)c1ccccc1N/N=C/c1c(Sc2nnnn2-c2ccccc2)nc2ccccn2c1=O | inactive |
| O=C1[C@@H]2[C@@H](CN3CN(c4ccccc4)N=C(c4ccccc4)[C@@]23c2ccccc2)C(=O)N1c1ccccc1 | inactive |
| O=C(N/N=C/c1ccsc1)c1cc(-c2cccs2)nc2ccccc12 | active: 15.8 µM |
| CC1CCN(C(=O)C(C)Sc2nc(-c3ccccc3)cc(C(F)(F)F)n2)CC1 (stereo not given) | inactive |
| COc1ccc(-c2nnc(NC(=O)c3ccc([N+](=O)[O-])o3)o2)c(OC)c1 | inconclusive [inhibitor, single point] |
| CSc1ccc(/C=N/NC(=O)c2ccccc2Cl)cc1 | inconclusive [inhibitor, single point] |
| O=C(OCC12CC3CC(CC(C3)C1)C2)c1ccc(NCc2cc(O)ccc2O)cc1 | inconclusive [inhibitor, partial curve] |
| O=S(=O)(Nc1nc2ccccc2nc1OCC(F)(F)F)c1cccs1 | inconclusive [inhibitor, single point] |
| O=C(N/N=C/C=C/c1ccco1)c1ccncc1 | inactive |
| CCCCn1c(N)c(N(CCC(C)C)C(=O)c2ccc([N+](=O)[O-])o2)c(=O)[nH]c1=O | inactive |
| CN(C)c1ccc(/C=C/c2ccnc3ccc(-c4ccccc4)cc23)cc1 | active: 9.2 µM |
| COC(=O)C1=C(C)N(Cc2ccco2)C(=O)/C1=C\c1ccc([N+](=O)[O-])cc1 | inconclusive [inhibitor, single point] |
| O=C(NC1CCCCCC1)c1ccc2c(c1)sc1nc(-c3ccccc3)cn12 | inconclusive [inhibitor, single point] |
| CCn1c(O)c(/C=N/NC(=O)c2ccncc2)c(=O)n(CC)c1=S | inactive |
| COc1cc(-c2cnc3c(NC(C)=O)cc(-c4ccccc4CN(C)C)cn23)cc(OC)c1OC | active: 12.5 µM |
| Nc1c(C(=O)Nc2ccccc2F)sc2nc(-c3ccco3)ccc12 | inconclusive [inhibitor, single point] |
| COc1ccc(/C=N\NC(=O)c2cc3c(ccc4ccccc43)o2)cc1O | inconclusive [inhibitor, single point] |
| Cc1nc2cc(NC(=O)CSc3nc4c(C)cccc4cc3C#N)ccc2s1 | active: 13 µM |
| Cc1c(NC(=O)c2csc3c2CCCC3)c(=O)n(-c2ccccc2)n1C | inactive |
| OCCCn1c(C2CCCN2c2nc(-c3ccc(F)cc3)cs2)nc2cc(Cl)c(N3CCCCC3)cc21 (stereo not given) | inconclusive [inhibitor, single point] |
| COc1ccc(S(=O)(=O)Nc2cc(Sc3ncn[nH]3)c(O)c3ccccc23)cc1 | inconclusive [inhibitor, single point] |
| COc1ccc(Nc2nc(C)nc3sc4c(c23)CCC4)cc1O | inconclusive [inhibitor, partial curve] |

| SMILES | Potency |
| --- | --- |
| N#CC1=C(N)Oc2cc(N)ccc2C1c1ccccc1 (stereo not given) | inconclusive [inhibitor, full curve] |
| Cn1cc(/C=C2\SC(=S)N(NC(=O)c3cccc(Cl)c3)C2=O)c2ccccc21 | active: 16.4 µM |
| C[C@H](O)[C@@H]1CN2CCc3c([nH]c4ccccc34)[C@@H]2C[C@@H]1N(C)C(=O)c1ccco1 | inconclusive [inhibitor, single point] |
| C=CCNC(=S)N/N=C(\C)c1ccc(OC)cc1 | inactive |
| CN(C)c1ccc(/C=C2\C(=N)N3N=C(CC(=O)N4CCCCC4)SC3=NC2=O)cc1 | active: 3.26 µM |
| COc1ccc(-c2nc3cnccn3c2NC2CCCCC2)cc1-c1cccc(Cl)c1 | inconclusive [inhibitor, single point] |
| O=C(COc1ccccc1-c1ccccc1)NN=C1CCCC1 | inconclusive [inhibitor, single point] |
| COc1ccc(-c2cc(C(F)F)n3ncc(C(=O)N4CCc5ccccc54)c3n2)cc1 | inconclusive [inhibitor, full curve] |
| COc1ccc(CCNC(=O)CC2(CC3=NS(=O)(=O)c4ccccc4N3)CCCC2)cc1OC | inactive |
| COCCNC(=S)N/N=C(\C)c1ccc(OC(F)F)cc1 | inactive |
| COc1ccccc1C=CC(=O)C=Cc1ccccc1OC | inconclusive [inhibitor, partial curve] |
| O=C(N/N=C/c1ccc2c(c1)OCO2)c1cccc2ccccc12 | inconclusive [inhibitor, partial curve, poor fit] |
| CN(C)c1ccc(/C=C/c2ccnc3c(N)cccc23)cc1 | active: 18.4 µM |
| C[C@@H]1O[C@@H](O[C@@H]2C(=O)c3c(O)cc(O)cc3O[C@H]2c2ccc(O)c(O)c2)[C@H](O)[C@H](O)[C@H]1O | inactive |
| Cc1cccc(OCCOc2ccccc2C=C(C#N)C#N)c1 | inconclusive [inhibitor, single point] |
| Cc1ccc2[nH]c(C(=O)NN=C3CCCCC3)c(-c3ccccc3)c2c1 | inactive |
| COc1cc(/C=C2\C(=N)N3N=CSC3=NC2=O)cc(Br)c1OC(=O)c1ccco1 | inactive |
| COc1ccc(N=Cc2c(O)n(-c3ccc(OC)cc3)c(=O)c3ccccc23)cc1 | inconclusive [inhibitor, single point] |
| O=S(=O)(N=C1C=CC(=NS(=O)(=O)c2ccccc2)c2ccccc21)c1ccccc1 | inconclusive [inhibitor, single point] |
| CN(C)c1ccc(/C=N/N(CCO)C2=NS(=O)(=O)c3ccccc32)cc1 | inconclusive [inhibitor, single point] |
| Cc1onc(-c2c(F)cccc2Cl)c1C(=O)O/N=C(\N)c1ccc([N+](=O)[O-])o1 | inactive |
| COc1ccc(Cn2c(=O)cc(N)n(-c3ccccc3C)c2=O)cc1 | inconclusive [inhibitor, partial curve, poor fit] |
